Assay results: publication PMC6451091
The other results are listed elsewhere or left out. Measured with an extract: partners may take part in the binding.

Target: T1, FLI1 (endogenous, THP-1 nuclear extract) (UniProt Q01543)
T1 sequence: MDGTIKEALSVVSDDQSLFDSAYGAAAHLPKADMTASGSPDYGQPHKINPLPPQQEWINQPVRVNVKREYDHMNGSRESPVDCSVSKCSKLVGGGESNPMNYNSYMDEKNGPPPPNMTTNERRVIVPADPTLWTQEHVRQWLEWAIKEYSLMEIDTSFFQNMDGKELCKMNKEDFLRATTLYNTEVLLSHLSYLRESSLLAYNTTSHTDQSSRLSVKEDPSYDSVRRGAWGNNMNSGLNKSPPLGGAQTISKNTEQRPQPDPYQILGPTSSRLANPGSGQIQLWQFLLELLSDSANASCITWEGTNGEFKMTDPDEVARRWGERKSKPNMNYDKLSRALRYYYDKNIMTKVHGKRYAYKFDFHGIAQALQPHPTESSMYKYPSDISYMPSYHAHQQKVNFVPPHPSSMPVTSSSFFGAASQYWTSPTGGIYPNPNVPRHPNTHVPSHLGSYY
Assay: nuclear extract protein-binding microarray (nextPBM)
Conditions: 20 mM HEPES pH 7.9, 100 mM NaCl, 1 mM DTT, 0.2 mg/mL BSA, 0.02% Triton X-100, 2% milk, 0.4 mg/mL salmon testes DNA; 1 h; temperature not stated; high values mean tight binding; double strand, one strand shown; sequences stand for … in GCCTAGCAC…GTGCTAGGTCTTGATTCGCTTGACGCTGCTG

Row | Sequence | binding signal [z-score]
1 | CAGTGAGGGAAGTGGCTGAA | 1.04
2 | GAAAAGGGGAACTGCTGAAT | 2.25
3 | ACATAAAGGAACTGTGCCCC | 0.992
4 | AGAAAAGGGAAGTGGGGAAG | 2.5
5 | CAAGGAAGGAAGTGGTGAGA | 2.15
6 | TCAGGGAGGAAGTGGTGGGG | 2.94
7 | AAAAACAGGAAGTGGGGAAA | 5.2
8 | CCAATGAGGAAGTGGACAAA | 2.68
9 | CACAAGGGGAAGTACTGTGC | 1.92
10 | GAAATGAGGAAGTTGAGAGC | 3.9
11 | CAAAAGAGGAAGTCAAATTG | 3.85
12 | CAACAGAGGAAGTGGGACAT | 2.69
13 | GAAGAGAGGAAGTACTGCCT | 2.7
14 | GCAAAGAGGAAGTGGGGTTG | 3.9
15 | CCAGGAGGGAAGTGCTTGGT | 1.26
16 | AGGAAGAGGAAGAGGAAGAA | 3.01
17 | AAAGAAAGGAAGTGGCCTGT | 2.42
18 | AGATTGAGGAAGTGAAGTGA | 2.81
19 | CCTGAGGGGAAGTGGGTCAG | 2.27
20 | CAATTCAGGAAGTGTGGCAA | 3.12

Row | Sequence | binding signal [z-score]
21 | GGGAGAAGGAAGTGGGAGCC | 1.95
22 | TAAAAGAGGAAGTGACCTCA | 4.21
23 | GAGAAGAGGAAGTGCCCCGT | 3.7
24 | GGAAAAAGGAAGTGCTTGCT | 2.85
25 | TGCAAGAGGAAGTGCAACCA | 2.92
26 | GAGGAGAGGAAGTAAGATTT | 2.81
27 | GAAAACAGGAAGTCACATAG | 4.79
28 | GAAATCAGGAAGTGAGAGTC | 3.46
29 | AACAACAGGAAGTGGCTCCT | 5.13
30 | ATGGAGAGGAAGTGATGCCT | 2.79
31 | CAAAAAGGGAAGCGGATGCT | 3.12
32 | CCAAGGAGGAAGTGAGGCCT | 2.93
33 | AGGGAAAGGAAGTGGTTGGA | 2.48
34 | GAGGAGGGGAAGTGAAATAT | 2.32
35 | CAAAAGAGGAACTCATTTTT | 2.67
36 | TAGAGCAGGAAGTGACTGAT | 4.19
37 | AGAAGGAGGAAGTTAGGACT | 2.73
38 | CTGTTAGGGAAGTGCCTGGG | 1.19
39 | CATCAGAGGAAGTGAATAAA | 2.44
40 | ATTTTAGGGAACTACTGTGC | 1.18
